According to patent publication US20230340152A1 (published 2023):
Numbering of substitutions follows the chain as printed. Numbers in names are those of the source.

Legend:
[1] = target: T1, Human CD73 on cells (MDA-MB-231, Jurkat CD73 knock-in, NCI-H322) (human, UniProt P21589 27-549); test: flow cytometry on cells
T1 construct: GPI-anchored native protein; also called native human CD73
T1 sequence: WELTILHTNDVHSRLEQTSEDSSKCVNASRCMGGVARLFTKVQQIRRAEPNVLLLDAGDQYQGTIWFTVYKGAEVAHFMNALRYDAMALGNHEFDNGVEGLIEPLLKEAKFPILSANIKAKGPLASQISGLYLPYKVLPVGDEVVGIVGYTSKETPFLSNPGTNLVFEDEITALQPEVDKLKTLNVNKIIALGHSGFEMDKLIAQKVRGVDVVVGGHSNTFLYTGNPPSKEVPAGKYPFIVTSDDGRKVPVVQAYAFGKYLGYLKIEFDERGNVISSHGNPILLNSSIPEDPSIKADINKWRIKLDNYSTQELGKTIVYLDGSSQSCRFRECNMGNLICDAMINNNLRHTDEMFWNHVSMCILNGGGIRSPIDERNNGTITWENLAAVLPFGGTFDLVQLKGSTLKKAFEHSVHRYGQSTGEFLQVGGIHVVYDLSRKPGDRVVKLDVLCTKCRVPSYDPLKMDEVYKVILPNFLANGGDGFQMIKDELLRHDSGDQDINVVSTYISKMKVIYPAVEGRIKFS

[2] = target: T2, Murine CD73 on cells (4T1, Jurkat mCD73 knock-in) (murine, UniProt Q61503 29-551); test: flow cytometry on cells
T2 construct: whole, on cells; also called 4T1 (murine)
T2 sequence (looked up): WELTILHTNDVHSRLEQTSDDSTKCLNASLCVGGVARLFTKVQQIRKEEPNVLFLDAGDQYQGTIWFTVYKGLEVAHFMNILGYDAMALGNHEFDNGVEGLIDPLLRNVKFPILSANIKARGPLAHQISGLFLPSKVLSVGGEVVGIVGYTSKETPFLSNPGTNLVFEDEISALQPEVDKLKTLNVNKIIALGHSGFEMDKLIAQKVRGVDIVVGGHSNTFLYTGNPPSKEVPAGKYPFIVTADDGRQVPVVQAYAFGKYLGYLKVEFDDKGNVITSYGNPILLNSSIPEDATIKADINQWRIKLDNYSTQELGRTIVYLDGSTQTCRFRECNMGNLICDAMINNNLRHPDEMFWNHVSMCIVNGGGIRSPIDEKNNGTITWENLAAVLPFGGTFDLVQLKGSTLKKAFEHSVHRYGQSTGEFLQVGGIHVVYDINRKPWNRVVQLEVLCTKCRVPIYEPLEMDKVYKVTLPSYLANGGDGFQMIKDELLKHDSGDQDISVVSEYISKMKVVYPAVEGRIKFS

[3] = target: T3, Cynomolgus CD73 on MK-1 cells (cynomolgus, UniProt A0A2K5V5U7 27-549); test: flow cytometry on cells
T3 construct: whole, on cells; also called MK-1 (cyno)
T3 sequence: T1 sequence with M199T, T350A, V466I

[4] = target: T4, Human CD73 ECD (human, UniProt P21589 27-549); test: SPR (Proteon)
T4 construct: Biotinylated in some assays; also called human CD73 extracellular domain; huCD73
T4 sequence: T1 sequence

[5] = target: T5, Cynomolgus CD73 ECD (cynomolgus, UniProt A0A2K5V5U7 27-549); test: SPR (Proteon)
T5 construct: extracellular domain; also called cyno CD73
T5 sequence: T1 sequence with M199T, T350A, V466I

[6] = target: T6, Murine CD73 ECD (murine, UniProt Q61503 29-551, limits assumed); test: SPR (Proteon)
T6 construct: extracellular domain; In-house recombinant ECD; also called murine CD73 extracellular domain; muCD73
T6 sequence (looked up): T2 sequence (looked up)

B1: P32E (IgG1-TM) (antibody, V domains shown)
VH: [not shown - about 100 residues]LGYSTIDYWGRGTLVTVSS
VL: QSVLTQPPSASGTPGQRVTISCSGSLSNIGRNEVNWYQQLPGTAPKLLIYLNNQRPSGVPDRFSGSKSGTSASLAISGLQSEDEADYYCATWDDSLNGWLFGGGTKLTVL
notes: IgG1-TM format; also called clone 10 P32E
- Kd [1]: 0.178 nM
- Kd [2]: 0.145 nM
- Kd [3]: 0.11 nM
- Kd [4]: 0.063 nM
- Kd [5]: 0.027 nM
- Kd [6]: 0.035 nM
